Source: paper PMC2727917 (Molecular cell, 2009)

Target: (His)6-UBC9 (UniProt P63279)
Experiment: pull-down

B1: GST-SUMO-1 (natural protein)
chain: not shown
binding result: binds
